Assay results from the antibiotic and cytotoxicity screens of Wong et al. (2023).
The other results are listed elsewhere or left out.

test system: HSkMC (human skeletal muscle cells); assay: cytotoxicity call (relative viability < 0.9); details: 10 µM

SMILES	cytotoxicity call
OC[C@H]1CC[C@@H]2O[C@H](CCc3ccc(C#CCc4ccccc4)cc3)[C@H](n3cc(-c4ccccc4)nn3)C[C@@H]2O1	active
O=C(C[C@@H]1CC=CC[C@@H](NC(=O)OCC2c3ccccc3-c3ccccc32)C(=O)OC[C@@H](Cc2ccccc2)NC1=O)N[C@@H](CO)Cc1ccccc1	inactive
CC(=O)NCCCC[C@@H]1NC(=O)[C@@H]2C[C@H](C(=O)O)[C@H](c3ccc(O)cc3)N2C1=O	inactive
CC(C)NC(=O)Nc1ccc2c(c1)C(=O)N([C@@H](C)CO)C[C@@H](C)[C@@H](CN(C)Cc1ccc(Cl)c(Cl)c1)OCCCC[C@@H](C)O2	inactive
CN(C)CC(=O)N[C@H]1CC[C@@H](CCNC(=O)C2CC2)O[C@H]1CO	inactive
COc1ccc(NC(=O)Nc2ccc3c(c2)CC(=O)N([C@@H](C)CO)C[C@H](C)[C@@H](CN(C)S(C)(=O)=O)O3)cc1	inactive
Cc1noc(C)c1NC(=O)Nc1ccc2c(c1)CC(=O)N([C@@H](C)CO)C[C@@H](C)[C@H](CN(C)S(=O)(=O)c1cn(C)cn1)O2	inactive
C[C@@H]1CN([C@@H](C)CO)C(=O)c2cc(NC(=O)Cc3cn(C)c4ccccc34)ccc2O[C@@H]1CN(C)C(=O)Nc1ccc(C(F)(F)F)cc1	active
CC(=O)Nc1cccc(NC(C)=O)n1	inactive
C=CCC[C@@H](Cc1ccc(F)cc1)C(=O)OC[C@@H](Cc1ccccc1)NC(=O)[C@H](CC=C)CC(=O)N(CCO)Cc1ccccc1	inactive
C[C@H]1CCCCO[C@@H](CN(C)C(=O)Nc2ccc(F)cc2)[C@@H](C)CN([C@@H](C)CO)C(=O)c2cc(NC(=O)Cc3ccccc3)ccc2O1	inactive
C[C@@H]1CCCCO[C@H](CN(C)S(=O)(=O)c2ccc(Cl)cc2)[C@H](C)CN([C@@H](C)CO)C(=O)c2cc(NC(=O)Nc3ccccc3)ccc2O1	inactive
Cc1ccc(NC(=O)Nc2cc(C(F)(F)F)ccc2F)cc1Nc1ccc2c(c1)NC(=O)/C2=C\c1ccc[nH]1	active
Cc1noc(C)c1NC(=O)N[C@@H]1C=C[C@@H](CC(=O)N2CCN(C)CC2)O[C@H]1CO	inactive
C[C@@H]1CCCCO[C@@H](CN(C)C(=O)Cc2ccccc2)[C@@H](C)CN([C@@H](C)CO)C(=O)c2cc(NS(=O)(=O)c3cccs3)ccc2O1	inactive
C[C@@H]1CCCCO[C@@H](CN(C)Cc2ccc(C(=O)Nc3ccccc3N)cc2)[C@@H](C)CN([C@H](C)CO)C(=O)c2cc(NC(=O)Nc3ccc4c(c3)OCO4)ccc2O1	inactive
C[C@@H]1CN([C@H](C)CO)S(=O)(=O)c2ccc(C3=CCCC3)cc2O[C@@H]1CN(C)S(=O)(=O)c1cn(C)cn1	inactive
Cc1noc(C)c1S(=O)(=O)Nc1ccc2c(c1)CC(=O)N([C@@H](C)CO)C[C@H](C)[C@H](CN(C)Cc1ccncc1)O2	inactive
Cc1noc(C)c1NC(=O)Nc1ccc2c(c1)C(=O)N([C@@H](C)CO)C[C@@H](C)[C@H](CN(C)Cc1ccc(C(=O)O)cc1)OCCCC[C@@H](C)O2	inactive
Cc1noc(C)c1S(=O)(=O)Nc1cccc2c1O[C@@H](CN(C)C(=O)NC1CCCCC1)[C@@H](C)CN([C@@H](C)CO)C2=O	inactive

SMILES	cytotoxicity call
C[C@H]1CNCCO1	inactive
COc1ccc(S(=O)(=O)N(C)C[C@@H]2Oc3ccc(NS(=O)(=O)c4ccccc4)cc3C(=O)N([C@@H](C)CO)C[C@H]2C)cc1	inactive
NCCc1cc2nc(-c3ccncc3)ccn2n1	inactive
COc1ccccc1CNC(=O)C[C@@H]1CC[C@H]2[C@@H](COC[C@H](O)CN2C(=O)Nc2ccc(Cl)cc2)O1	inactive
O=C(C[C@@H]1C[C@H]2c3cc(NC(=O)C4CCOCC4)ccc3O[C@H]2[C@H](CO)O1)NCc1ccc(Cl)cc1	inactive
C[C@@H]1CCCCO[C@@H](CN(C)Cc2ccc3c(c2)OCO3)[C@@H](C)CN([C@@H](C)CO)C(=O)c2cc(NC(=O)Cc3ccccc3)ccc2O1	inactive
C[C@@H]1CN([C@H](C)CO)C(=O)Cc2cc(NC(=O)CCN3CCOCC3)ccc2O[C@@H]1CN(C)Cc1ccc2c(c1)OCO2	inactive
COc1ccc(S(=O)(=O)N(C)C[C@@H]2Oc3ccc(NC(=O)CCC(F)(F)F)cc3CC(=O)N([C@H](C)CO)C[C@H]2C)cc1	inactive
C[C@H](CO)N1C[C@H](C)[C@H](CN(C)Cc2ccc(C(=O)O)cc2)OCCCC[C@H](C)Oc2ccc(NC(=O)CCC(F)(F)F)cc2C1=O	inactive
Cc1noc(C)c1NC(=O)N(C)C[C@H]1Oc2ccc(NS(=O)(=O)c3ccccc3)cc2CC(=O)N([C@H](C)CO)C[C@H]1C	inactive
CO[C@@H]1CN(C)C(=O)c2ccc(NC(C)=O)cc2OC[C@H](C)N(S(=O)(=O)c2cn(C)cn2)C[C@H]1C	inactive
COc1ccc(NC(=O)Nc2ccc3c(c2)C(=O)N([C@H](C)CO)C[C@@H](C)[C@H](CN(C)Cc2ccccc2)OCCCC[C@H](C)O3)cc1	inactive
C[C@H]1CN([C@@H](C)CO)C(=O)c2cc(NC(=O)Nc3cccc4ccccc34)ccc2O[C@@H]1CN(C)CC1CCCCC1	inactive
COc1ccc(S(=O)(=O)Nc2cccc3c2O[C@@H](CN(C)CC2CC2)[C@@H](C)CN([C@@H](C)CO)C3=O)cc1	inactive
CCOC(=O)N(C)C[C@@H]1OCc2cnnn2CCCC(=O)N([C@H](C)CO)C[C@H]1C	inactive
O=C(C[C@@H]1CC=CCC[C@H](Cc2ccc(F)cc2)C(=O)OCCNC1=O)N[C@@H](CO)Cc1ccccc1	inactive
O=C(CN1CCOCC1)NCC[C@@H]1CC[C@@H](NC(=O)Cc2ccccn2)[C@@H](CO)O1	inactive
COc1ccc(NC(=O)N(C)C[C@H]2OCCCC[C@H](C)Oc3ccc(NS(=O)(=O)c4ccc(Cl)cc4)cc3C(=O)N([C@H](C)CO)C[C@@H]2C)cc1	inactive
CCS(=O)(=O)Nc1ccc2c(c1)C(=O)N(C)[C@@H]1CC[C@@H](CC(=O)NCCCN3CCOCC3)O[C@@H]1CO2	inactive
C[C@H](CO)N1C[C@H](C)[C@@H](CN(C)C(=O)Nc2ccc3c(c2)OCO3)OCc2cn(nn2)CCCC1=O	inactive
